The values that follow come from paper PMC4336329 (PLoS ONE, 2015).

Out of some 310,000 compounds screened, about 2,200 (0.71%) showed an effect of 50% or more. Effects have a minus sign here. Some of the results follow. Where a SMILES comes first, the peptide text is derived from it. The star is where a group is joined. Boc = CC(C)(C)OC(=O)*

human ether-à-go-go-related gene (hERG) potassium channel, sequence (Q12809 whole entry, looked up): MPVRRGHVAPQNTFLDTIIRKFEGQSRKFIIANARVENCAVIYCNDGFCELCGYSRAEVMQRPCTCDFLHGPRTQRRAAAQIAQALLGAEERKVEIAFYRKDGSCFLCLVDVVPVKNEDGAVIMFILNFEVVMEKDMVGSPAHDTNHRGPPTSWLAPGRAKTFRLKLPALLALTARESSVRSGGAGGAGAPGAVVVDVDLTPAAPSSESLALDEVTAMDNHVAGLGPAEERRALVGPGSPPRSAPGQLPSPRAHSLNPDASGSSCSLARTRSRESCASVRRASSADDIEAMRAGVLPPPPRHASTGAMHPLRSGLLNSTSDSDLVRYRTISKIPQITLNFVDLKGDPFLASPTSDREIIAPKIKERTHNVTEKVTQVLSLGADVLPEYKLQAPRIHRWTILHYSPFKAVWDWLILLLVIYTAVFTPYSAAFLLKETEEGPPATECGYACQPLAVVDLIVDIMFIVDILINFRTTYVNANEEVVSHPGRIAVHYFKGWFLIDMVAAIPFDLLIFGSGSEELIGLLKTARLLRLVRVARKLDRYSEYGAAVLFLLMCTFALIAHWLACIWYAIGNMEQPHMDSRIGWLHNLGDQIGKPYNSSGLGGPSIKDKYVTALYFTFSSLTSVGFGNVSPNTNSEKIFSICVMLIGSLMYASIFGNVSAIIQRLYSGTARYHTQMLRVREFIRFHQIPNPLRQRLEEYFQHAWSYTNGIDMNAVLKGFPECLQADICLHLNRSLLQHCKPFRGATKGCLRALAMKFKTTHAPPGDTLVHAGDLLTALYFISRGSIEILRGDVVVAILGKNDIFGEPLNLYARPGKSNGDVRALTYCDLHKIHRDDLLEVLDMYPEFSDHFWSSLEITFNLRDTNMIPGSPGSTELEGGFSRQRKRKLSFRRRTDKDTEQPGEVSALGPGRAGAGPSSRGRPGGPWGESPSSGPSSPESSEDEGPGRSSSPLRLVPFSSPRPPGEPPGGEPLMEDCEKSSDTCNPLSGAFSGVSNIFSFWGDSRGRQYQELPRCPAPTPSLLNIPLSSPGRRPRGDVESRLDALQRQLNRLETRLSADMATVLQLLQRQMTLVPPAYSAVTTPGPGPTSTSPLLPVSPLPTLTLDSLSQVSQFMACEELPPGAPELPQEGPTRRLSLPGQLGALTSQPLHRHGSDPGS

The test addresses human ether-à-go-go-related gene (hERG) potassium channel (human, UniProt Q12809). Briefly: primary screen, population patch clamp on CHO cells stably expressing hERG.
Turning to `Cc1ccc(CCNC(=O)CCNS(=O)(=O)c2ccc3c(c2)c(=O)n(C)c(=O)n3C)cc1`, the “hERG current change (%, negative = inhibition) at 1uM” value turned out to be 16.5%. In the case of `CCOC(=O)c1nc(C)sc1-c1ccnn1S(=O)(=O)c1ccc(C)cc1` it was 11.4%. In the case of `CCOc1ccc(/C=N/NC(=S)NC2CC3CCC2C3)cc1` (stereo not drawn) it was 2.26%.

For the compound `CC(=O)c1ccc(-n2cc(C#N)c(=O)[nH]c2=O)cc1`, the “hERG current change (%, negative = inhibition) at 1uM” value is given as 6.46%. Then `O=[N+]([O-])c1cccc(C2N3CCCN23)c1` (stereo not drawn), with 12.1%. Then `CC(C)(C)NC(=O)c1sccc1C(=O)O`, with 8.71%. In the case of `CCCS(=O)(=O)N1CCCC(C(=O)NCCCN(C)c2ccccc2)C1` (stereo not drawn) it was 5.24%; in that of `Cc1cccc(-n2nc3c(c2NC(=O)c2ccco2)CS(=O)C3)c1C` (stereo not drawn), 7.55%; in that of `CCc1nc(SCc2ccc(F)cc2)[nH]c(=O)c1C#N`, 12.7%.

Consider `COc1ccc(C(=O)NC(=S)Nc2ccccc2N2CCOCC2)cc1[N+](=O)[O-]`, for which the “hERG current change (%, negative = inhibition) at 1uM” value amounted to 13.4%. `Cc1cc(C(=O)CSc2nnc(-c3cccnc3)n2-c2ccccc2F)c(C)n1CC1CCCO1` (stereo not drawn): the “hERG current change (%, negative = inhibition) at 1uM” value is given as -1.34%. In the case of `CC(=O)NCc1cc(-c2ccc(Cl)cc2)no1` it was 1.4%; in that of `COCc1nc2ccccc2n1Cc1ccccc1Br`, -9.83%; in that of `N#C/C(=C\c1ccncc1)c1nc2c(s1)CCCC2`, 8.56%. Consider `O=C(COc1ccc(S(=O)(=O)NC2CCCCC2)cc1Cl)N1CCN(c2ccccc2)CC1`, for which the “hERG current change (%, negative = inhibition) at 1uM” value is recorded as -8.01%.

With `C[C@@]12C(=O)N(CC3CC3)CC(=O)N1[C@H](C1CC1)[C@@H]1C(=O)N(c3ccccc3)C(=O)[C@@H]12`, the “hERG current change (%, negative = inhibition) at 1uM” value is listed as -3.17%. For the compound `Cc1cc(N(C)N)nc(NC(=O)NS(=O)(=O)c2ccccc2Cl)n1`, the “hERG current change (%, negative = inhibition) at 1uM” value is on record as 8.66%. In the case of `COc1ccc(C(=O)/C=C2/c3ccccc3CC(C)(C)N2C)cc1` it was 17.6%; in that of `CC(C)C(NC(=O)OC(C)(C)C)C(=O)N1CCCC1C(=O)NC(Cc1ccccc1)C(N)=O` (stereo not drawn) (Boc-Val-Pro-Phe-NH2; configuration not given here), 3.9%. Then `CCOc1cccc(-c2cc(C(=O)Nc3ccon3)c3ccccc3n2)c1`, with 10.6%; and `COc1ccccc1-c1c(C(F)(F)F)oc2c(CN(C)C)c(O)ccc2c1=O`, with 12.2%.

`COc1cc2c(cc1OC)CN(C(=O)c1cc3ccccc3oc1=O)CC2`: the “hERG current change (%, negative = inhibition) at 1uM” value was 4.01%. Then `O=C(O)CCn1cc(C2CC(c3ccccc3)=NN2c2ccccc2)c(-c2ccccc2)n1` (stereo not drawn), with 45.1%; and `COC(=O)c1ccccc1CSc1nsc(C)c1C#N`, with 17.9%. In the case of `COc1ccc(CNC(=O)CN(c2ccc(C)cc2)S(=O)(=O)c2c(C)nn(C)c2C)cc1` it was 11.5%.

On to `Cc1c(CCOC(=O)c2ccccc2)sc[n+]1CC(=O)c1ccc(Br)cc1.[Br-]`, for which the “hERG current change (%, negative = inhibition) at 1uM” value was -82.8%. In the case of `COC(=O)c1ccccc1S(=O)(=O)Oc1ccc(-c2ccc(C(=O)O)cc2)cc1` it was 9.49%; in that of `O=C(CN(Cc1ccccc1)S(=O)(=O)c1ccccc1)N/N=C/c1ccc([N+](=O)[O-])cc1`, 11.6%; in that of `Cc1ccc(C)c(N2CCN(C(=O)c3csc(C)c3C)CC2)c1`, 9.56%. With `CC(=O)N1CCc2cc(Br)cc(S(=O)(=O)CCC(=O)N3CCN(c4ccccn4)CC3)c21`, the “hERG current change (%, negative = inhibition) at 1uM” value was 6.2%. In the case of `COc1ccc(CC2(CCc3ccncc3)C(=O)NC(=O)NC2=O)c(OC)c1` it was 11.6%; in that of `O=c1nc2sc3ccccc3n2c(=O)n1-c1ccc(Cl)cc1`, 8.14%. As for `O=C1N(Cc2cccc(Cl)c2)C[C@@H]2C[C@@H](c3cccn3-c3cccnc3)N3CCC[C@@]123`, the “hERG current change (%, negative = inhibition) at 1uM” value worked out at 3.63%.

Consider `COc1ccc(CCn2c(O)c(C=Nc3ccc(NC(C)=O)cc3)c(=O)[nH]c2=O)cc1OC`, for which the “hERG current change (%, negative = inhibition) at 1uM” value is reported as 17.9%. Then `CC1CCN(CCCOc2ccc(Br)cc2Cl)CC1`, with -20%. Consider `CCCC(=O)Nc1ccc(NC(=O)c2cc3ccccc3o2)c(OC)c1`, for which the “hERG current change (%, negative = inhibition) at 1uM” value was 15.4%. Then `Cn1c(=O)c2c(-c3cccc(Br)c3)c(C#N)c(N)nc2n(C)c1=O`, with 12.1%; and `Cc1cccc(NC(=O)CSCC(=O)OCc2ccccn2)c1`, with 16.2%. Turning to `CCC(C(=O)NCc1cccnc1)n1nc(C)n2c(cc3occc32)c1=O` (stereo not drawn), the “hERG current change (%, negative = inhibition) at 1uM” value was 6.82%. Turning to `CCC(C)(C)NC(=O)C(c1ccc(OC)cc1)N(C(=O)CCC(=O)Nc1cc(C)on1)C1CC1` (stereo not drawn), the “hERG current change (%, negative = inhibition) at 1uM” value is 1.45%. In the case of `COc1cc(OC)cc(C(=O)NNC(=O)CNC(=O)c2cccs2)c1` it was 18.9%. In the case of `CCC1Oc2ccc(C)cc2N(CC(=O)NCc2cc(OC)ccc2OC)C1=O` (stereo not drawn) it was 8.23%; in that of `COc1ccc(/C=N/Nc2nc(=O)[nH]nc2C)cc1[N+](=O)[O-]`, 13.5%; in that of `COC(=O)COc1ccc(S(=O)(=O)NCCC2=CCCCC2)cc1C`, 4.65%. On to `O=C(COC(=O)c1ccco1)NCc1ccccc1Cl`, for which the “hERG current change (%, negative = inhibition) at 1uM” value is -0.0931%. In the case of `O=C(Nc1ccc(F)cc1)NC1CCCCCCC1` it was 20%; in that of `Cc1cc(=O)oc2cc(NC(=O)CCCC(=O)O)ccc12`, 12.5%; in that of `CN1CCN(C(=O)CCN2C(=O)/C(=C\c3ccc(Cl)cc3)SC2=S)CC1`, 7.76%. In the case of `CCc1cc(C(=O)N2CCCc3ccccc32)sc1C` it was 15.7%. Then `COc1ccc(Nc2ncnc3ccc(C)cc23)cc1`, with 9.97%. For `Cl.O=C(CN1CCOCC1)Nc1ccc(OC(F)(F)F)cc1`, the “hERG current change (%, negative = inhibition) at 1uM” value came out at 8.55%. Then `COc1ccc(-c2cc(C(F)(F)F)n3nc(C(=O)N(C)Cc4ccccc4)cc3n2)cc1OC`, with 6.34%; and `COc1ccc(CCN(CC(=O)NCc2ccc(F)cc2)C(=O)c2snc(C(N)=O)c2N)cc1OC`, with -3.03%; and `Cc1ccc(S(=O)(=O)c2nc(S(=O)(=O)CCO)sc2N2CCOCC2)cc1`, with 15.3%. As to `CC(C)c1c(C#N)c(N)nc(SCC(=O)c2cc3ccccc3oc2=O)c1C#N`, the “hERG current change (%, negative = inhibition) at 1uM” value was 9.61%. Then `Cc1cc(NC(=O)CSCC(=O)N(C)Cc2cccc(Cl)c2)no1`, with 6.22%; and `Cc1nc2cc(-c3cccc(F)c3)nn2c(C)c1CCC(=O)NC(C)c1ccc2c(c1)OCCO2` (stereo not drawn), with -2.28%. Then `Cc1cccc(-n2c(SCc3ccc(C#N)cc3)nnc2-c2c[nH]c3ccccc23)c1`, with 9.46%; and `CCOC(=O)N1CCC(NC(=O)c2ccc3c(c2)N=C(C)c2ccccc2S3)CC1`, with 10.8%; and `Cc1ccccc1NC(=O)c1ccc(C)c(S(=O)(=O)Nc2cccnc2)c1`, with 11.1%.

Take `CC(=O)c1cccc(NS(=O)(=O)c2c(C)noc2C)c1`: the “hERG current change (%, negative = inhibition) at 1uM” value is listed as 15.3%.

With `COc1ccc(CCN2C(=O)NC(NS(=O)(=O)c3ccc(NC(C)=O)cc3)(C(F)(F)F)C2=O)cc1OC` (stereo not drawn), the “hERG current change (%, negative = inhibition) at 1uM” value is reported as -0.301%. As for `CCc1ccc(N2CC(C(=O)NCc3ccc4c(c3)OCO4)CC2=O)cc1` (stereo not drawn), the “hERG current change (%, negative = inhibition) at 1uM” value amounted to 7.51%. In the case of `Cc1cccc(-c2nc3ccccc3c(=O)n2NC(=O)/C=C/c2ccc([N+](=O)[O-])cc2)c1` it was -11.1%; in that of `CN(C)S(=O)(=O)c1ccc(N2CCCC2)c(C(=O)OCC(=O)N2CCN(c3ccccc3)CC2)c1`, 4.41%. On to `CCCCC(=O)NC(=S)NNC(=O)CCc1ccccc1`, for which the “hERG current change (%, negative = inhibition) at 1uM” value amounted to 10.8%. For the compound `CC#CCNCc1ccccc1`, the “hERG current change (%, negative = inhibition) at 1uM” value amounted to 16.5%. In the case of `Cc1cc(Br)cc(Br)c1OCC(=O)NNC(=O)Nc1ccccc1` it was 6.33%; in that of `CCCCOc1nc2ccccc2nc1C(C#N)C(=O)NC1CCCCC1` (stereo not drawn), 13.3%. Then `O=[N+]([O-])c1ccc(-[n+]2ccc3ccccc3c2)c([N+](=O)[O-])c1.[Cl-]`, with 3.65%; and `COC(=O)c1sccc1NC(=O)CC1C(=O)NCCN1C(=O)Nc1ccc(C(F)(F)F)cc1` (stereo not drawn), with 10.5%.

Consider `Cc1ccsc1/C=C1/SC(N2CCOCC2)=NC1=O`, for which the “hERG current change (%, negative = inhibition) at 1uM” value was found to be 7.45%.

With `COc1cccc(/C=N/NC(=O)c2cc(C34CC5CC(CC(C5)C3)C4)[nH]n2)c1`, the “hERG current change (%, negative = inhibition) at 1uM” value is 4.28%. Take `COc1ccc(-c2nn(CCC(=O)O)cc2/C=C/C(=O)O)cc1[N+](=O)[O-]`: the “hERG current change (%, negative = inhibition) at 1uM” value is on record as 12.4%. On to `CCOC(=O)c1cnc(SC2CC(=O)N(c3ccc(OC)c(OC)c3)C2=O)nc1N` (stereo not drawn), for which the “hERG current change (%, negative = inhibition) at 1uM” value is listed as -5.27%. In the case of `CC1CCN(CCc2nc3cc(NC(=O)C(C)C)ccc3n2C)CC1`, the “hERG current change (%, negative = inhibition) at 1uM” value is listed as 9.1%.

With `Cc1cc(C)cc(OCC(=O)Nc2ccc(N3CCCCC3)cc2)c1`, the “hERG current change (%, negative = inhibition) at 1uM” value is listed as 13.2%.

For `COc1ccc(CCN=C(N)NS(=O)(=O)c2ccc(F)cc2)cc1OC`, the “hERG current change (%, negative = inhibition) at 1uM” value was 6.27%. In the case of `Cc1ccc(S(=O)(=O)N2CCN(Cc3cc(=O)n4ccccc4n3)CC2)c(C)c1` it was -33.5%; in that of `CN(C)CCNC(=O)C(=O)Nc1cc2c3c(c1)CCC(=O)N3CCC2`, 10.5%; in that of `CCc1ccccc1NC(=O)/C(=C/c1ccco1)c1ccccc1`, 7.04%. In the case of `COc1cc(/C=C(\NC(C)=O)C(=O)Nc2ccc(NC(C)=O)cc2)ccc1OC(C)=O` it was 6.81%; in that of `COc1ccc(NC(=O)Nc2ccc3oc(C)nc3c2)cc1`, 7.5%. In the case of `COc1ccc(NC(C)=O)cc1C#N` it was 13.8%.
